From publication PMC3791423, “A Key Hydrophobic Patch Identified in an AAA^+ Protein Essential for Its In Trans Inhibitory Regulation” (Journal of Molecular Biology, 2013)

B1: PspF_([…]) F60C (domain or fragment)
chain: not shown
notes: E. coli PspF, […], site-directed mutant of pPB1
B2: PspF_([…]) G58C (domain or fragment)
chain: not shown
notes: as for B1
B3: PspF_([…]) H50C (domain or fragment)
chain: not shown
notes: as for B1
B4: PspF_([…]) I61C (domain or fragment)
chain: not shown
notes: as for B1
B5: PspF_([…]) P59C (domain or fragment)
chain: not shown
notes: as for B1
B6: PspF_([…]) Q57C (domain or fragment)
chain: not shown
notes: as for B1
B7: PspF_([…]) R55C (domain or fragment)
chain: not shown
notes: as for B1
B8: PspF_([…]) S53C (domain or fragment)
chain: not shown
notes: as for B1
B9: PspF_([…]) S54C (domain or fragment)
chain: not shown
notes: as for B1
B10: PspF_([…]) S62C (domain or fragment)
chain: not shown
notes: as for B1

The binders below were run against PspA_(1–186) (E. coli, UniProt P0AFM6 part only) (assay: native gel or EMSA; PspA–F binding assay: 10 μM PspF_(1–275) and 30 μM PspA_(1–186) in STA buffer, 10 μl; native gel stained with SYPRO Ruby). Settings: both partners purified.
B1: binds.
B2: binds.
B3: binds.
B4: binds.
B5: binds.
B6: binds.
B7: binds.
B8: binds.
B9: binds.
B10: binds.
